In all, about 1,400 sequences were measured (“thermal melting temperature (Tm) of peptide-HLA complex”: median about 60, lowest 2% from about 45 on). The list shows a part of the results.
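Note: cell lysates heated 10 min at 37–73 °C, remaining pHLA pulled down with pan-class I antibody, peptides quantified by DIA-MS versus 37 °C, Tm where half the complex is lost.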

For this assay, the target named is HLA-B*07:02. Put plainly: thermal melting temperature (Tm) of peptide-HLA complex; higher = more thermostable pHLA complex. Conditions: C1R-B*07:02.
Take TPGPAGSRL: the thermal melting temperature is 53.1 °C.
Consider YPNERFELL, for which the thermal melting temperature came to 63.1 °C.
Turning to KPHIGLTEL, the thermal melting temperature was 60.7 °C.
For the sequence KPSESNVTIL, the thermal melting temperature was determined as 58.3 °C.
As to LPRGFGSLPAL, the thermal melting temperature was determined as 61 °C.
In the case of IPSIRNGIL, the thermal melting temperature was determined as 62.8 °C.
Sequence KPLYTAEPVTL displayed a thermal melting temperature of 58.5 °C.
The result for IPLKGSTL reads 46 °C; that for RPAAIPIEI, 62.5 °C; that for RPSLNIATVL, 60.8 °C.
Take NPRDPPSWSV: the thermal melting temperature came to 55.5 °C.
MPSSRLWSL registered a thermal melting temperature of 60.9 °C.
The sequence SPHPGLLL came in with a thermal melting temperature of 61 °C.
Sequence TPRSTVGVAV returned a thermal melting temperature of 56 °C.
Turning to MPYSNGRPAL, the thermal melting temperature was found to be 58.2 °C.
For GPRPAAIAV, the thermal melting temperature was 58.8 °C.
With FPHVQTDVL, the thermal melting temperature stood at 62.6 °C.
The result for SPRENILVSL reads 62.3 °C; that for LPEENYQVL, 61.9 °C.
In turn, RPTLPVKSL had a thermal melting temperature of 60 °C.
For APLLRVAL, the thermal melting temperature stood at 63 °C.
The result for SPQGRVMTI reads 56.9 °C; that for SPRPALPALLV, 59.4 °C; that for PAERKQAL, 61.2 °C.
The result for SPAEWGQRL reads 55.6 °C; that for HPYGLGPPSL, 55.2 °C; that for SPSPERSLLL, 60.8 °C.
Consider SPANPAHIL, for which the thermal melting temperature was 66.3 °C.
Sequence HPRDPNLLL registered a thermal melting temperature of 61 °C.
For IPRPWSSGL, the thermal melting temperature stood at 61.2 °C.
The result for GPHIASVTL reads 59.3 °C.
The result for SPGQRAVLL reads 59.2 °C.
As to RPINITSL, the thermal melting temperature was 60.7 °C.
With LPRAGLEL, the thermal melting temperature was 62.3 °C.
The sequence SPRPGAPPAAI gave a thermal melting temperature of 58.1 °C.
The result for IPHHAPVLL reads 45.8 °C.
In turn, LPRTPSYSI had a thermal melting temperature of 62.1 °C.
In the case of QPVAGRPSL, the thermal melting temperature was determined as 55.8 °C.
As for YPQDLPRPL, the thermal melting temperature is 60.7 °C.
As for RPSTSTAVF, the thermal melting temperature came out at 58.4 °C.
Regarding QPASFAIRL, the thermal melting temperature is 54 °C.
In the case of APAPRPSL, the thermal melting temperature came to 58.1 °C.
In the case of APDVGRMGI, the thermal melting temperature is 58.2 °C.
The result for KPRPSVEPA reads 62.6 °C; that for PQQPHPPL, 47.4 °C.
The result for SPTPRIKAEL reads 46.2 °C; that for APRKGSFSAL, 61.1 °C.
VPRERVDHL showed a thermal melting temperature of 54.7 °C.
The sequence SPHTPSTHF yielded a thermal melting temperature of 46 °C.
As to RPQPVLPLL, the thermal melting temperature was 59.8 °C.
The result for SPASFLRSL reads 40.6 °C.
The sequence TPQMPTQAM gave a thermal melting temperature of 59.7 °C.
Consider RPKDPNNLL, for which the thermal melting temperature was determined as 59.1 °C.
With SPKLGGIGF, the thermal melting temperature worked out at 55.5 °C.
IPYPRPIHL came in with a thermal melting temperature of 61.1 °C.
In the case of LPKQPPLAL, the thermal melting temperature turned out to be 63.5 °C.

The record behind these values is the supplement of paper PMC7726561.
